# The RNAGym collection of RNA variant scans (doi:10.7554/elife.90254)
# The source gives no read counts; variants with many changes may rest on few reads.
# B1: OR4K15 (parent)
# chain: GUUAACGGUCAUAGGCCAUGGAAACUAGGAGCACCAUUUCGCUGCCAGUGAAGAAAUGAACAAAGAAAAUCUGGGCCAGGCAGGCAUCAAAAGAAAUAGUCUUGCGCUCAACCAGAAAGUCUGUAAUCAUUUUAAGGGUA
# Variants of: B1
# Assay: self-cleavage, relative activity (ratio to wild type); higher = more cleavage; in vitro, sequencing; the parent is a self-cleaving ribozyme
row,Variant,self-cleavage
1,A86U A96G U132A,2.54
2,A78U A82G C121A U122C,0.12
3,U97C U100C U122C U131C,1.66
4,A92C A98G U132C,0.26
5,A90G A126G U127A,0.28
6,A78U A116G U130C,0.03
7,A82G A96G A117G U131C,0.1
8,A91G U102C U131C,2.02
9,A78U A82U U108C,0.02
10,G74A A98G U130A,0.02
11,C77U A89G U122C,1.88
12,U102C A110G A117G,0.13
13,A96G U102C U132C,2.08
14,U87A A110G A116U,0.06
15,G74C A96G U122C,0.12
16,A89U U108C U127C U130C,0
17,A82G A89G U108C,0.01
18,A78G A114U U122C,0.02
19,A96G A114G U122G,0.21
20,A96G A111G A114G A129G,0
21,U87A A96G A118G,1.2
22,A91G U100C A114G,1.06
23,U87A A94U G136A,2.02
24,A78U U87C U130C A140G,0.13

row,Variant,self-cleavage
1,A90G A91G U122G,1.16
2,C77U G106A A118G,0
3,A78G A94U U97A,0.11
4,A94U G106A A135G,0
5,A91G A116G A118G,0.13
6,A86G U103C A111G U130C,0
7,A78G G80A U127C,0.12
8,U102C A111U A116G,0.01
9,A86C A114U U131C,0.01
10,G80A A89G A90U,0.1
11,A94G A118G U130C,1.71
12,A78G U103A A117G,0.13
13,C77U A125G A129U,0.68
14,G80U U130G U131C,0.05
15,U102C U124A A126G,0.79
16,A78G A118U U120A,0.16
17,A91G U103C A111G,0.01
18,A86U U127C G137A,1.81
19,A82G U100C A129G,0.74
20,U102A U120C U132C,0.17
21,U102C U108C U130C,0.01
22,A98C U127C A135U U139A,0.25
23,A96U A114U A116G U127G A134G,0
24,A91G A116G U127A,0.3

row,Variant,self-cleavage
1,A95G A111G U139A,0.04
2,A86G A89C U122C,0.51
3,G74U U87C A94G,0.17
4,A96G U108C U124A,0.01
5,A78G U122A A126G A129G U130C,0
6,U87C A111U U127C,0.01
7,G74A A78U A92G U102C,0.33
8,A89G A90G A95G,1.4
9,A82G A86G A110G,0.04
10,C77U A89G A116G A118G,1.2
11,A82U A89G G93A,0.2
12,U87C A114U A117G,0.12
13,U87C A111G U130C,0
14,A86U U127C U131C,2.19
15,A78C A82U A114U,0
16,A86G A92G A94G,0.99
17,C81U A118G U132C,0.09
18,A94G U97C G137C,0.74
19,U87C A94G A98U U122C A140G,1.27
20,A96G A125G A134U,0.75
21,A82G U108C A110U,0.01
22,A86G A96G U103C A114G A118G A126G,0.02
23,A78G A90U U133C,0.25
24,A92G U100C A126G,1.58

row,Variant,self-cleavage
1,A78G A86G A116G U122C,0.07
2,A90U U122C U130C,1.35
3,A90G A92G A110G U127C,0.03
4,A92C U130C A134G,1.4
5,A91G U131C A140G,1.07
6,A92G A117G U122C,1.64
7,A90G A116G U127C,0.17
8,U97C A110U A111G A116G,0.01
9,U102C C113U U122C,0.02
10,A96G U108C A110G,0.01
11,A78U A91U U103C,0.07
12,U100C U127C U131C,2.58
13,A82G G104U A116U,0
14,U87C A117G U127A,2.43
15,A94G A111G A117G U120C,0
16,U100C A117G U127C G136A,1.99
17,A78U C88U A90G U122C,0.12
18,A94U A118G U124A,0.96
19,A82G A91G A96U U127C,0.03
20,U87C A96U A129G U131C U139C,1
21,U87A C105U A116G,0.08
22,A98U U131C A140G,2.05
23,A78G U122C U131C,0.16
24,G79U U103C U130C,0.03

row,Variant,self-cleavage
1,G80A A114U U120C,0.01
2,A95G A96G A116U,0.35
3,A89U A94G U130A,1.46
4,A78U C81G U108G,0.01
5,A82U G104C C121U U122A G123C U132C,0.15
6,A78U A94G U108C U131C,0.01
7,A78G A86G A96G,0.15
8,A82G A89G U100C,1.99
9,A92U A110C U122C,0.16
10,A86U U87C A91G,0.83
11,A82G U102C A118U,0.06
12,A78G U103C A111G,0.02
13,A96G A98G A118G A140G,0.86
14,A89U U108C A117G,0.01
15,A82U A110C A116G,0.05
16,U97C U102C U122C,2.11
17,U87C U103C U132C G138A,0.58
18,A91G A92G U103C,0.13
19,A96G A114G U130C,0.27
20,U103C A110G U122C,0.03
21,A78U A91U A114C,0.02
22,A82G U87C A126G,0.27
23,A78G A94G U102C U120C,0.21
24,A86G A95G A117U,1.18

row,Variant,self-cleavage
1,G74A A78G U100C A117G,0.23
2,C76U G83U U87C U102C A116G,0.11
3,U97C A110G A134G,0.15
4,C88A A94G A96G U132C,1.48
5,U87C U100C A114U U127C U131C,0.02
6,U97A U108C A111G,0.01
7,A91G U100C C101A U124A,0.45
8,G75A U102A U122C,0.03
9,U87C U124C A126G,0.12
10,A78G A90C A134G,0.18
11,A82G A89G A117G U120A,0.55
12,G75A A89G A92G,0.11
13,A86U U124C G138A,0.93
14,A90U U102A U122C A129G,0.55
15,A95G U139C A140G,2.41
16,A94G U108C A118G U132C,0
17,U87C A96G U100C,2.83
18,A96U U103C C105A,0.01
19,G75A U120C U130C U132C,0.05
20,U87C A92G G104U G123A,0
21,A92G U102C A114G A118G,1.06
22,A82G U102C U103A,0.65
23,A78U A91G C105A,0.01
24,A95G A111U A116U,0.07

row,Variant,self-cleavage
1,A78G U108A U131C,0.01
2,A86G U108C A110G A126G,0
3,C85U A95G U130C,1.24
4,G84A A89G A110U,1.43
5,G74U U97A A110C,0.02
6,A78G A89G U130C U132C,0.34
7,A82G A91G A116U,0.01
8,U102C U108A U132C U139A,0
9,A82G A92G A96G,0.31
10,C77U A91G U102A U130C,1.35
11,A92G A98U U139C,1.49
12,A78G A98U U103C A129G,0.13
13,A94G A116G A125G,0.54
14,A89U U108C A114C,0
15,A78G U120C U127C,0.09
16,A92G A96G A135U,1.11
17,A82U A90G U131C,0.13
18,A92U A94U U102C,2.04
19,G73A U122A A134U,0.2
20,A89G A92G U108C,0.03
21,A82G A90C A110U,0.44
22,A94G A116G A134G U139C,1.43
23,C81G U108C A117G,0.01
